Publication PMC9911399, “Two distinct binding modes provide the RNA-binding protein RbFox with extraordinary sequence specificity”
Substitutions are numbered along the chain they refer to; changes in the protein carry UniProt numbers. The list shows a part of the results.

T1: RBFOX1 RRM (Homo sapiens, UniProt Q9NWB1 109-208)
T1 sequence: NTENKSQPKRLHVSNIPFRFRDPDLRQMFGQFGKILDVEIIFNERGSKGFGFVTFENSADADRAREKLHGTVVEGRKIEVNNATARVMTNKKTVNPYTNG

B1: AUAGUGA (DNA:RNA)
RNA: GGGAGACCGGAAUUCAGAUUGUCCAUAGUGAUUAAAUCCCGUCGUAGCCACCA
DNA 1: CAATCTGAATTCCGGTCTCCC
DNA 2: TGGTGGCTACGACGGGATT
B2: GUGAUAU (DNA:RNA)
RNA: B1 RNA with A25G, A27G, G28A, G30A, A31U
DNA 1: CAATCTGAATTCCGGTCTCCC
DNA 2: TGGTGGCTACGACGGGATT
B3: UCUGUCA (DNA:RNA)
RNA: B1 RNA with A25U, U26C, A27U, G30C
DNA 1: CAATCTGAATTCCGGTCTCCC
DNA 2: TGGTGGCTACGACGGGATT
B4: AAAAUAU (DNA:RNA)
RNA: B1 RNA with U26A, G28A, G30A, A31U
DNA 1: CAATCTGAATTCCGGTCTCCC
DNA 2: TGGTGGCTACGACGGGATT
B5: GUCGGAA (DNA:RNA)
RNA: B1 RNA with A25G, A27C, U29G, G30A
DNA 1: CAATCTGAATTCCGGTCTCCC
DNA 2: TGGTGGCTACGACGGGATT
B6: UUGGGGC (DNA:RNA)
RNA: B1 RNA with A25U, A27G, U29G, A31C
DNA 1: CAATCTGAATTCCGGTCTCCC
DNA 2: TGGTGGCTACGACGGGATT
B7: AGUAUCC (DNA:RNA)
RNA: B1 RNA with U26G, A27U, G28A, G30C, A31C
DNA 1: CAATCTGAATTCCGGTCTCCC
DNA 2: TGGTGGCTACGACGGGATT
B8: AACCCUC (DNA:RNA)
RNA: B1 RNA with U26A, A27C, G28C, U29C, G30U, A31C
DNA 1: CAATCTGAATTCCGGTCTCCC
DNA 2: TGGTGGCTACGACGGGATT
B9: AGGGCUA (DNA:RNA)
RNA: B1 RNA with U26G, A27G, U29C, G30U
DNA 1: CAATCTGAATTCCGGTCTCCC
DNA 2: TGGTGGCTACGACGGGATT
B10: CAACAAA (DNA:RNA)
RNA: B1 RNA with A25C, U26A, G28C, U29A, G30A
DNA 1: CAATCTGAATTCCGGTCTCCC
DNA 2: TGGTGGCTACGACGGGATT
B11: UCAGCAU (DNA:RNA)
RNA: B1 RNA with A25U, U26C, U29C, G30A, A31U
DNA 1: CAATCTGAATTCCGGTCTCCC
DNA 2: TGGTGGCTACGACGGGATT
B12: UUACAGA (DNA:RNA)
RNA: B1 RNA with A25U, G28C, U29A
DNA 1: CAATCTGAATTCCGGTCTCCC
DNA 2: TGGTGGCTACGACGGGATT
B13: UAAGCGC (DNA:RNA)
RNA: B1 RNA with A25U, U26A, U29C, A31C
DNA 1: CAATCTGAATTCCGGTCTCCC
DNA 2: TGGTGGCTACGACGGGATT
B14: GUUCGGA (DNA:RNA)
RNA: B1 RNA with A25G, A27U, G28C, U29G
DNA 1: CAATCTGAATTCCGGTCTCCC
DNA 2: TGGTGGCTACGACGGGATT
B15: CAAAGGC (DNA:RNA)
RNA: B1 RNA with A25C, U26A, G28A, U29G, A31C
DNA 1: CAATCTGAATTCCGGTCTCCC
DNA 2: TGGTGGCTACGACGGGATT
B16: CAAAAGU (DNA:RNA)
RNA: B1 RNA with A25C, U26A, G28A, U29A, A31U
DNA 1: CAATCTGAATTCCGGTCTCCC
DNA 2: TGGTGGCTACGACGGGATT
B17: CGUCGCC (DNA:RNA)
RNA: GGGAGACCGGAAUUCAGAUUGUCCCGUCGCCUUAAAUCCCGUCGUAGCCACCA
DNA 1: CAATCTGAATTCCGGTCTCCC
DNA 2: TGGTGGCTACGACGGGATT
B18: CAGUGGG (DNA:RNA)
RNA: B17 RNA with G26A, U27G, C28U, C30G, C31G
DNA 1: CAATCTGAATTCCGGTCTCCC
DNA 2: TGGTGGCTACGACGGGATT
B19: GCAGUAC (DNA:RNA)
RNA: B1 RNA with A25G, U26C, G30A, A31C
DNA 1: CAATCTGAATTCCGGTCTCCC
DNA 2: TGGTGGCTACGACGGGATT
B20: GGGCGUC (DNA:RNA)
RNA: B17 RNA with C25G, U27G, C30U
DNA 1: CAATCTGAATTCCGGTCTCCC
DNA 2: TGGTGGCTACGACGGGATT
B21: ACGACUC (DNA:RNA)
RNA: B1 RNA with U26C, A27G, G28A, U29C, G30U, A31C
DNA 1: CAATCTGAATTCCGGTCTCCC
DNA 2: TGGTGGCTACGACGGGATT
B22: AGUUAAG (DNA:RNA)
RNA: B17 RNA with C25A, C28U, G29A, C30A, C31G
DNA 1: CAATCTGAATTCCGGTCTCCC
DNA 2: TGGTGGCTACGACGGGATT
B23: UCUUGCA (DNA:RNA)
RNA: B17 RNA with C25U, G26C, C28U, C31A
DNA 1: CAATCTGAATTCCGGTCTCCC
DNA 2: TGGTGGCTACGACGGGATT
B24: AUGGCCG (DNA:RNA)
RNA: B1 RNA with A27G, U29C, G30C, A31G
DNA 1: CAATCTGAATTCCGGTCTCCC
DNA 2: TGGTGGCTACGACGGGATT
B25: GGUAGGG (DNA:RNA)
RNA: B17 RNA with C25G, C28A, C30G, C31G
DNA 1: CAATCTGAATTCCGGTCTCCC
DNA 2: TGGTGGCTACGACGGGATT
B26: AUUCUCG (DNA:RNA)
RNA: B1 RNA with A27U, G28C, G30C, A31G
DNA 1: CAATCTGAATTCCGGTCTCCC
DNA 2: TGGTGGCTACGACGGGATT
B27: UCCGUGC (DNA:RNA)
RNA: B1 RNA with A25U, U26C, A27C, A31C
DNA 1: CAATCTGAATTCCGGTCTCCC
DNA 2: TGGTGGCTACGACGGGATT
B28: GAUAGAA (DNA:RNA)
RNA: B17 RNA with C25G, G26A, C28A, C30A, C31A
DNA 1: CAATCTGAATTCCGGTCTCCC
DNA 2: TGGTGGCTACGACGGGATT
B29: GAUCAGC (DNA:RNA)
RNA: B17 RNA with C25G, G26A, G29A, C30G
DNA 1: CAATCTGAATTCCGGTCTCCC
DNA 2: TGGTGGCTACGACGGGATT
B30: UGGAAAC (DNA:RNA)
RNA: B17 RNA with C25U, U27G, C28A, G29A, C30A
DNA 1: CAATCTGAATTCCGGTCTCCC
DNA 2: TGGTGGCTACGACGGGATT
B31: UGGUUAA (DNA:RNA)
RNA: B1 RNA with A25U, U26G, A27G, G28U, G30A
DNA 1: CAATCTGAATTCCGGTCTCCC
DNA 2: TGGTGGCTACGACGGGATT

target: T1, RBFOX1 RRM; assay: EMSA; HiTS-Eq, 1 nM pool, 10 min; buffer printed only for the single-RNA assays: 10 mM Tris pH 7.5, 150 mM NaCl, 3.4 mM EDTA, 0.001% NP-40, 30 C; conditions: tags: His6 N-terminal (pET28a); label: 5' 32P
Outline: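 A pool of RNA with 7 randomized nucleotides, 5′-radiolabelled and with DNA-annealed flanks, was equilibrated at 1 nM for 10 min in 50 µL with purified RbFox RRM, wild type or mutant, across increasing protein concentrations. Free RNA was separated by 8% native PAGE, excised, reverse-transcribed, barcoded by PCR and sequenced. Relative association constants were obtained from read-count changes of each RNA species versus the control reaction and normalised to the cognate motif.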

| Binder | binding signal |
| --- | --- |
| B1 | 0.00737 KA relative to UGCAUGU |
| B2 | 0.00897 KA relative to UGCAUGU |
| B3 | 0.0106 KA relative to UGCAUGU |
| B4 | 0.00193 KA relative to UGCAUGU |
| B5 | 0.0105 KA relative to UGCAUGU |
| B6 | 0.0074 KA relative to UGCAUGU |
| B7 | 0.0066 KA relative to UGCAUGU |
| B8 | 0.000348 KA relative to UGCAUGU |
| B9 | 0.0182 KA relative to UGCAUGU |
| B10 | 0.0026 KA relative to UGCAUGU |
| B11 | 0.0104 KA relative to UGCAUGU |
| B12 | 0.00703 KA relative to UGCAUGU |
| B13 | 0.0104 KA relative to UGCAUGU |
| B14 | 0.00644 KA relative to UGCAUGU |
| B15 | 0.00351 KA relative to UGCAUGU |
| B16 | 0.000757 KA relative to UGCAUGU |

| Binder | binding signal |
| --- | --- |
| B17 | 0.01 KA relative to UGCAUGU |
| B18 | 0.0044 KA relative to UGCAUGU |
| B19 | 0.00875 KA relative to UGCAUGU |
| B20 | 0.0208 KA relative to UGCAUGU |
| B21 | 0.0029 KA relative to UGCAUGU |
| B22 | 0.0071 KA relative to UGCAUGU |
| B23 | 0.0204 KA relative to UGCAUGU |
| B24 | 0.0147 KA relative to UGCAUGU |
| B25 | 0.00958 KA relative to UGCAUGU |
| B26 | 0.00908 KA relative to UGCAUGU |
| B27 | 0.0168 KA relative to UGCAUGU |
| B28 | 0.0125 KA relative to UGCAUGU |
| B29 | 0.00735 KA relative to UGCAUGU |
| B30 | 0.0149 KA relative to UGCAUGU |
| B31 | 0.00976 KA relative to UGCAUGU |
